# From the supplement of paper PMC3334620
# Whole data set: some 33,000 sequences, median “E-score (-0.5 to 0.5)” near -0.035, cut for the highest 2% near 0.35. This is one part of the list.
# Target: T1, Pdr3 (UniProt P33200)
# T1 sequence: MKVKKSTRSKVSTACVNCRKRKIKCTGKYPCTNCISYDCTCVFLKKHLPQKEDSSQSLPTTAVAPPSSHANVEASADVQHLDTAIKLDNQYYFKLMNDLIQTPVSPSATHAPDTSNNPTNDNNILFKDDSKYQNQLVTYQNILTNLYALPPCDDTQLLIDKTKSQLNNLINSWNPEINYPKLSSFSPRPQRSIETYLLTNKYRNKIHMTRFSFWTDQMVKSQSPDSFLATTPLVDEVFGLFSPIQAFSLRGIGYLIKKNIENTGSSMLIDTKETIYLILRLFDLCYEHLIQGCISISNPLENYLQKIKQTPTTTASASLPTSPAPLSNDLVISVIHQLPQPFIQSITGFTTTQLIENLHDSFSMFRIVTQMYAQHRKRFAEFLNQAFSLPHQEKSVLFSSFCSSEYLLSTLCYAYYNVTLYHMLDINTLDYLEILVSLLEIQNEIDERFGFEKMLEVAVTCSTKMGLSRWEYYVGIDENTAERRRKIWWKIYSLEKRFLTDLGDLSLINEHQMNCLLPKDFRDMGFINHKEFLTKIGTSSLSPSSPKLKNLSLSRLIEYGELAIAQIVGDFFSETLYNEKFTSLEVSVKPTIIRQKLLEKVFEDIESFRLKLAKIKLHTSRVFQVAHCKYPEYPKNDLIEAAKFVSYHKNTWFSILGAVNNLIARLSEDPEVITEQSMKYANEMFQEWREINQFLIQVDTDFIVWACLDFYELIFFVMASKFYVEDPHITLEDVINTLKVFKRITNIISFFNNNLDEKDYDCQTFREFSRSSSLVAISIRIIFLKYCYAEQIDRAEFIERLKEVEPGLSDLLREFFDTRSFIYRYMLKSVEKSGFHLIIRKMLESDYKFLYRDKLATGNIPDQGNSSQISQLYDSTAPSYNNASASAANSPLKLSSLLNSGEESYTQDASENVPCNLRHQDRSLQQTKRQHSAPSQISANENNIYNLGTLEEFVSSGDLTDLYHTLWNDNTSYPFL
# Assay: PBM E-score (8-mer binding enrichment) (E-score (-0.5 to 0.5)); higher = stronger / more preferred TF binding; most listed sequences are background and not binding sites
# Settings: protein concentration: 200 nM; construct: GST-full length
# How it was run: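 For each ungapped eight-base word taken together with its reverse complement, the Universal PBM Analysis Suite assigned an E-score. Binding data came from GST-tagged yeast transcription factors, applied at about 100-200 nM, on universal all-10-mer Agilent arrays made double-stranded by primer extension. Fluorescent anti-GST marked bound protein, and scans were normalised with masliner.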
row,Sequence,PBM E-score
1,GACAGTCC,-0.0383
2,CTTCGAGA,-0.187
3,GTCAAAAA,-0.163
4,AAAGTGAC,-0.101
5,CCTAGTCA,-0.323
6,ACAGGCGG,0.142
7,AGGTACGG,0.0614
8,CAGAGTAG,-0.226
9,ATGACATG,-0.0403
10,CGCTGATA,-0.115
11,ACGGCTGG,0.00647
12,TAACTGAA,-0.173
13,ACTTTTCG,-0.00487
14,TTAGAAAA,-0.164
15,CTGAGCTA,-0.206
16,GCAGTGCA,-0.0221
17,ACCACGGA,0.377
18,CACTTGTA,-0.226
19,GTCAGCTA,-0.181
20,GTATGGCA,-0.0708
21,CAGTATCA,-0.0897
22,ATGCCACG,0.0833

row,Sequence,PBM E-score
1,CAGTTCAC,-0.081
2,AGAGGCAC,-0.154
3,CACACAAA,-0.0672
4,GTGCGCGA,0.135
5,ATATTGTG,-0.125
6,ATTAACAG,-0.142
7,CAACATTA,-0.0498
8,ATACCAAG,0.0273
9,ACGTCGAC,0.0694
10,ACCACTCT,-0.0702
11,ACTCCTAC,-0.176
12,AGACTCGG,-0.099
13,CTGCCCAC,-0.184
14,GCATAAGC,-0.145
15,CCGTGGAA,0.437
16,CCTGGCAG,-0.214
17,CCCTAACC,-0.0984
18,TATGCTGA,-0.0666
19,ACTGCAAA,0.053
20,TGCGAGAA,-0.139
21,CCTACTAA,0.111
22,ACTTATCG,0.0484

row,Sequence,PBM E-score
1,CCGGTTCC,0.426
2,CGAGCCCG,0.0919
3,ACGAGGAG,-0.156
4,AAGTGGGC,-0.0765
5,AAAAGTTT,-0.0885
6,CGACCTCA,-0.02
7,CCCTACGA,-0.111
8,ATGAACCA,0.11
9,ATCAGCAT,0.0174
10,CCCAGAGA,-0.223
11,AATATACC,0.0896
12,ACCATACC,0.0114
13,CATGTGTC,-0.0825
14,GTGTCCGA,0.279
15,AAGACCTT,-0.276
16,ATTCCGTC,0.42
17,TGTCCAAA,-0.0358
18,GTTGCGCA,-0.103
19,CCCGCTTC,0.12
20,GTTAAAAA,-0.152
21,ATCAATTC,0.054
22,ACCAGCCT,-0.158

row,Sequence,PBM E-score
1,GCTTGTCC,0.128
2,CCAGCGAG,-0.0025
3,CTTGGAAA,-0.109
4,AGGAGGAT,-0.0986
5,CACCGGGC,0.171
6,GGGGGTGA,-0.129
7,AACCCACT,0.0857
8,AAGCCTAC,-0.219
9,CCTGAACC,-0.188
10,GTATACAC,-0.118
11,AGCCGGAG,0.362
12,AGGATCGA,-0.0117
13,ACAGGCAT,-0.0543
14,CCTTGGAC,-0.181
15,CTTAGTGC,0.00478
16,GGGGACAC,-0.0313
17,AGCAAGCG,0.226
18,GGCAGCCC,0.138
19,CCATGTCA,-0.164
20,GAAGGCAC,0.0418
